This sample is rich in variants without activity.
B1: TPR 5TU (parent)
chain: GGAUCUUCUCGAUCUAACAAAAAAGACAAAUCUGCCACAAAGCUUGAGAGCAUCUUCGGAUGCAGAGGCGGCAGCCUUCGGUGGCGCGAUAGCGCCAACGUUCUCAACUAUGACACGCAAAACGCGUGCUCCGUUGAAUGGAGUUUAUCAUG

Variants of: B1
Assay: polymerase ribozyme fitness, log enrichment relative to wild type (log ratio); higher = more active; in vitro selection for triplet polymerase activity
Outline: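 Input and output libraries were sequenced on Illumina after a single in vitro selection round, run in triplicate on PCR-built, transcribed mutant libraries of each subunit of a heterodimeric triplet polymerase ribozyme. Selection annealed libraries to a biotinylated primer, the partner subunit and triplets, incubated them frozen at −7 °C, then gel-excised extended constructs for streptavidin-bead capture and RT-PCR. Genotypes with ≥10 input reads and ≥1 read per output were kept. Fitness is the logarithm, taken in base 2, of genotype enrichment divided by wild-type enrichment, using inverse-variance-weighted replicate averages.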

Variant | polymerase ribozyme fitness (log ratio)
G42C G48U | ≤ -4.2
U44A U53A U55A U56A G92U A121C | ≤ -4.2
C43A A60G U146A | ≤ -4.2
G42U G70C C87A A89U | ≤ -4.2
U44A G48C G62A A66C G68U G70A C87A A91C | ≤ -4.2
G42U C51A U56A C79G | ≤ -4.2
U44A U90G C93U G143A U151G | ≤ -4.2
U44A C79U A89G U104A A107G | ≤ -4.2
C43U C54G G74C C79G | ≤ -4.2
G42C U55G U61G C72U A73G G88U | ≤ -4.2
G42C C116G A120U A138G G141U G143A | ≤ -4.2
C43U G59C G67A C75A G86U | ≤ -4.2
C43U A47C U56A U78G C87G | ≤ -4.2
C43U C75G G80U C123U C131U | ≤ -4.2
C43U C57A C85G A106C | ≤ -4.2
G42C G94C G112C | ≤ -4.2
G42C G50U A52G G92A | ≤ -4.2
G42C C103A | ≤ -4.2
G42C A91U U111A G128U | ≤ -4.2
U44A A47C C54A U78A C87G | ≤ -4.2
G42C U44G U82C G133U | ≤ -4.2

Variant | polymerase ribozyme fitness (log ratio)
U44A G50C G84U G88A U139C G152A | ≤ -4.2
U44A G50C G84U G88A U139C G152U | ≤ -4.2
G42C U53A G83C G126U | ≤ -4.2
G42U U44A C93U U109G G152U | ≤ -4.2
C43A G86A U102A U104C C116U | ≤ -4.2
G42U U44A C57G U82G C87A A113G U135A | ≤ -4.2
G42U C51A A52C C63A G74C C76A C79G C87G C93U A113C | ≤ -4.2
C43G C57A A60U G141C | -4.18
C43U A49U U55A G92C | ≤ -4.2
C43U C93G | ≤ -4.2
C43U C79A G84U C95A G133U U135G U151A | ≤ -4.2
U44A G50C G94A A142C | ≤ -4.2
G42C G83A A106U | ≤ -4.2
G42U U90C A106U A107C | ≤ -4.2
C43G U45C U53A G59A G83A G136C | ≤ -4.2
U44A C69A G92A C93G U145G | ≤ -4.2
U44A A66C U102C G143U | ≤ -4.2
U44A C51U | ≤ -4.2
U44A A64G C72G G80C C96U U104C A122G U146A | ≤ -4.2
U44A C54U A60U U61G G71A C103G | ≤ -4.2
C43A G68C G80C A138C | ≤ -4.2

Variant | polymerase ribozyme fitness (log ratio)
G42C C93G U135G | ≤ -4.2
U44A G88C A91U C118A | ≤ -4.2
C43U G46A G74U | ≤ -4.2
C43G C54U G62C G84A A97G | ≤ -4.2
C43U C72U U134G U139C | ≤ -4.2
G42C A60G A113U G140U | -3.85
U44A G50U G92C C103G C125A | ≤ -4.2
G42C G92U A137U | ≤ -4.2
G42U C93G C96A | ≤ -4.2
U44A C54A C75G G92U U145C | ≤ -4.2
U44A U45A C93G | ≤ -4.2
G42U U44A G83C C105G A106C U109G C132G | ≤ -4.2
C43U U82A C103A A150U | ≤ -4.2
U44A G81C A98U G141C A147C | ≤ -4.2
G42C C76U G141C | ≤ -4.2
C43U A60G U61G G86A U134G | ≤ -4.2
G42C G68A C93G U144A U151A | ≤ -4.2
G42C U61A C76A U127A U144C U145C A150C | ≤ -4.2
G42C C43A G84A | ≤ -4.2
G42U G65A G67C G71A C96A A110G | ≤ -4.2
G42C G59A A64U A73C U77C G84A C99U A120G | ≤ -4.2

Variant | polymerase ribozyme fitness (log ratio)
G42C G58C A73G C85U C95A A122U | ≤ -4.2
C43U U55C C93A | ≤ -4.2
C43A U56A G84A A91U G126A A150G | ≤ -4.2
G42C C99G U146G | ≤ -4.2
C43A U61G G62A G84A C85U | ≤ -4.2
G42C G48C A106U U145G | ≤ -4.2
C43U A52C U53A G92A C118U | ≤ -4.2
U44A C54G C87U A91U C103G C129A G152U | ≤ -4.2
G42U G59A A60G U90C U111G A150G | ≤ -4.2
C43U U90C C93U C125G | ≤ -4.2
G42C G70C G88C A91U G141A | ≤ -4.2
U44A C116G | -4.19
C43U G84U U134C A142U | ≤ -4.2
U44A C85A A121G U135G A150C | ≤ -4.2
C43G C95U C96A | -4.15
G42U G48C A66U C85A C132G | ≤ -4.2
C43U G84U C105U | ≤ -4.2
U44A G117A U135G | ≤ -4.2
G42C C87A G140C | ≤ -4.2
G42C A52G C57U G83C A113U G126A | ≤ -4.2
G42U U44C A91U A107G A142U | ≤ -4.2

From the RNAGym collection of RNA variant scans (doi:10.1073/pnas.2313332121)
